Data published in article PMC4336329 (PLoS ONE, 2015).
The whole screen tested about 310,000 compounds, of which about 14,000 (4.5%) showed an effect of 50% or more. Effects have a minus sign here. The list shows a part of the results.

Target: human ether-à-go-go-related gene (hERG) potassium channel (human, UniProt Q12809)
Test: primary screen, population patch clamp on CHO cells stably expressing hERG
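Further: peak tail current of the secondary pulse compared with the same well before compound.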

Sequence of human ether-à-go-go-related gene (hERG) potassium channel (Q12809 whole entry, looked up): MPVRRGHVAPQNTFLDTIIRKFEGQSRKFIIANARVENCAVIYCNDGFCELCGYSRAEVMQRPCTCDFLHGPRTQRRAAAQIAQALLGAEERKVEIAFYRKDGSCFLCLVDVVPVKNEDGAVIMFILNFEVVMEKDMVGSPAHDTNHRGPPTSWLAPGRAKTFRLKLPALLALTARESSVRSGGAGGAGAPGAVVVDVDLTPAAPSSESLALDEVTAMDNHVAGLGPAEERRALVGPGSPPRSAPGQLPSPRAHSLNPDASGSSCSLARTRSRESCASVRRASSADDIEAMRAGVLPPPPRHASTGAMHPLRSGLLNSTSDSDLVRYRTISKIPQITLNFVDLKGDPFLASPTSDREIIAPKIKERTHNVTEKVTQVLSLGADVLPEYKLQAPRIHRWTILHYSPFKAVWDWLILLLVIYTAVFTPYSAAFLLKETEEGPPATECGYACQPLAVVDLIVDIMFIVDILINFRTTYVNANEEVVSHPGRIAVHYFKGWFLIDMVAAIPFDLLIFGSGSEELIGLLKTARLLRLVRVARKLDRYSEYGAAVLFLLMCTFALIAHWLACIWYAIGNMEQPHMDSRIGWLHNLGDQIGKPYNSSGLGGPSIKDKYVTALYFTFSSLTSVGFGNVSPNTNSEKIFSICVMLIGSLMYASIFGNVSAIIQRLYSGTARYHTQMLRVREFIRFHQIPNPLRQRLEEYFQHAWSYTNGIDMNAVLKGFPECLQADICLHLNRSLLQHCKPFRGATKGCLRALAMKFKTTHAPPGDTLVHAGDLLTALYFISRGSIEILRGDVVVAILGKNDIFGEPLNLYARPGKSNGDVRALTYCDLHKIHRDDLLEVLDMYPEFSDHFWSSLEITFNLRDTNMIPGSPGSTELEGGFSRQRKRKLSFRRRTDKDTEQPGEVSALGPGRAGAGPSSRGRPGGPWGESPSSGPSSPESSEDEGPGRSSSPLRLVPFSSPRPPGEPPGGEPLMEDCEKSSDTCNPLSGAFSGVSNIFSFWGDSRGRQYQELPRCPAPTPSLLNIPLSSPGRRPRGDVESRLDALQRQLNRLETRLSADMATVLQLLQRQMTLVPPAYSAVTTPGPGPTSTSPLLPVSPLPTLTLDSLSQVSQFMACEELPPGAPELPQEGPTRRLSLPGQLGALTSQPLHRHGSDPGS

SMILES	hERG current change (%, negative = inhibition) at 10uM [%]
COc1cc(-c2nc(C(=O)NCC3CCCO3)cc3c2[nH]c2ccccc23)cc(OC)c1OC (centres unmarked)	-7.94
COc1ccc(-c2cnnn2-c2ccc(NC(=O)/C=C/c3ccc(OC)c(OC)c3)cc2)cc1	-5.92
CCOC(=O)c1c(CSc2ccccc2)n(C)c2ccc(O)c(CN3CCN(C)CC3)c12	-22.6
Cc1cc(-c2ccc(N=Nc3c(S(=O)(=O)[O-])cc4cc(S(=O)(=O)[O-])cc(N)c4c3O)c(C)c2)ccc1N=Nc1c(S(=O)(=O)[O-])cc2cc(S(=O)(=O)[O-])cc(N)c2c1O.[Na+]	9.05
Cc1cc(=O)c2cccc(Br)c2[nH]1	0.296
CCc1ccc(NC(=O)CNC(=O)c2nn(-c3ccc(OC)cc3)c(=O)c3ccccc23)cc1	-2.44
COc1cc2[nH]c(=O)n(CCC(=O)N3CCN(Cc4ccccc4)CC3)c(=O)c2cc1OC	-24.1
CSc1nc2nc(-c3ccccc3)cc(=O)n2[nH]1	-9.66
COc1ccc(CN2CCCC(C(=O)N3CCCCC3)C2)c(OC)c1.O=C(O)C(=O)O (centres unmarked)	-26.7
CCC(CC)C(=O)Nc1cccc(S(=O)(=O)c2cccc(NC(=O)C(CC)CC)c2)c1	8.34
COc1ccc(CN(CC(=O)NC2CCCC2)C(=O)c2onc(C(N)=O)c2N)cc1	-7.12
O=c1[nH]c(=S)c2ncn(-c3ccccc3)c2[nH]1	11.7
Cc1ccc(S(=O)(=O)NC(C(=O)N2CCOCCOCCOCC2)C(C)C)cc1 (centres unmarked)	10.1
COc1ccc(N=C2SC(C(N)=O)CC(=O)N2Cc2ccc3c(c2)OCO3)cc1 (centres unmarked)	16.2
Cn1c(SCC(=O)Nc2ccc3nc(SCC(=O)NC4CC4)sc3c2)nnc1-c1ccccc1	-5.5
COc1ccccc1/C(C)=N/Oc1cc(N)cc([N+](=O)[O-])c1	10.9
O=C(NCc1cccs1)c1ccccc1[N+](=O)[O-]	-11.4
O=[N+]([O-])c1ccc(C[n+]2cccc3ccccc32)cc1.[Cl-]	-3.07
COc1cccc(C(=O)N=c2sc3c(C)ccc(OC)c3n2C)c1	0.931
O=[N+]([O-])CC(c1ccccc1)c1c[nH]c2ccccc12 (centres unmarked)	10.6
O=C(Nc1cccc(F)c1)c1cccc(S(=O)(=O)N2CCOCC2)c1	-18.9
CCCCc1n[nH]c(=S)n1Cc1ccc(C)cc1	-3.67

SMILES	hERG current change (%, negative = inhibition) at 10uM [%]
CC(Sc1nc(C(C)(C)C)cc(-c2ccccc2)c1C#N)C(=O)Nc1ccccc1 (centres unmarked)	0.885
CSCC(C)N1CCC(CCC(=O)NC2CC2)CC1 (centres unmarked)	-18.1
Cn1c(COc2ccc(C(=O)O)cc2)nc2ccccc21	14.7
O=C(Nc1ccccc1)Nc1cc([N+](=O)[O-])ccc1F	1.93
O=C(Nc1ccc(F)cc1)N1CCn2c(nc3ccccc32)C1	-17
Cc1ccc(-c2ccc(/C=N/c3ncn[nH]3)o2)cc1Cl	11.6
CCn1c(CNC(=O)c2ccco2)nnc1SCC(=O)c1ccc(OC)cc1	-17.1
Cc1[nH]c2ccccc2c1C(Nc1nccs1)c1ccncc1 (centres unmarked)	-19.9
O=C(NCc1ccccc1)c1ccc(CS(=O)(=O)Cc2ccc(F)cc2)o1	3.24
COc1ccc(Cl)cc1N(CC(=O)NC1CC1)S(=O)(=O)c1ccc(C)c([N+](=O)[O-])c1	11.9
CCCn1c(=O)c(Br)cn(-c2ccccc2C)c1=O	11.5
COc1ccc(/C=C/C(=O)OCC(=O)NC2CCCC2)c(OC)c1	1.22
Cn1nc2c3ccccc3n(Cc3ccccc3)c2nc1=S	14.1
Clc1cccc(-c2ccc(/C=N/n3cnnc3)o2)c1	-15.6
Cc1noc(C)c1COc1ccc(C(=O)OCc2nnc(-c3ccc(Cl)cc3)o2)cc1	10.1
Cc1cc(C=C2C(=O)N(C)C(=S)N(C)C2=O)c(C)n1-c1cccnc1	0.86
O=C(NCC1CCCO1)c1ccc2c(c1)ncn2-c1cccc(F)c1 (centres unmarked)	-10.2
CCc1ccc(O)c(CNCCNCc2cc(CC)ccc2O)c1	-55.2
COC(=O)c1ccc(NC(=S)N2CCN(C)CC2)cc1	3.76
COC(=O)c1ccccc1NC(=S)NC(=O)COc1ccc(C(C)C)cc1	-1.66
C=C(C)COc1ccc2c(CC)cc(=O)oc2c1C	7.78
CCOC(=O)Cc1csc(NC(=O)COc2ccc3c(C)cc(=O)oc3c2)n1	-20.7
